According to patent US20260217856A1 (MIE UNIVERSITY, published 2026):

Assays:
Assay in all cases: cell-based or functional assay
[1] = molecular target: complex of a PRAME derived peptide and HLA-A24 (human)
[2] = molecular target: complex of a PRAME derived peptide and HLA-A24 (human); remark: listed apart in the source
[3] = molecular target: complex of a MAGE-A4 derived peptide and HLA-A2 (human)

B1: PRAME-zG-m1 (other)
chain: QVQLQVQLVQSGAEVKKPGSSVKVSCKASGGTFSSYAISWVRQAPGQGLEWMGGIIPIFGTANYAQKFQGRVTITADESTGTAYMELSSLRSEDTAVYYCARHHSNYYYYGMDVWGQGTTVTVSRGGGGSGGGGSGGGGSMASYELTQPLSVSVALGQTARITCGGNNIGSKNVHWYQQKPGQAPVLVIYRDSNRPSGIPERFRGRNSGNTARLTISRAQAGDEADYYCQVWDSSHVFGTGTKVTVLGQPKANPTVTLFPPSSEELQANKATLVCLISDFYPGAVTVAWKADGSPVKAGVETTKPSKQSNNKYAASSYLSLTPEQWKSHRSYSCQVTHEGSTVEKTVAPTECSARQTRFWVLVVVGGVLACYSLLVTVAFIIFWVRL[about 120 residues left out here]RSQCMWPRETQLLLEVPPSTEDARSCQFPEEERGERSAEEKGRLGDLWV
With B1 the “cytotoxic activity, effector:target 1:1, SK-MEL-124 target cells” value [1] was 2.37 ratio to WT CAR-T (1.00) and the “cytotoxic activity, effector:target 3:1, SK-MEL-124 target cells” value [1] was 2.96 ratio to WT CAR-T (1.00).

B2: PRAME-zG-m2 (other)
chain: QVQLQVQLVQSGAEVKKPGSSVKVSCKASGGTFSSYAISWVRQAPGQGLEWMGGIIPIFGTANYAQKFQGRVTITADESTGTAYMELSSLRSEDTAVYYCARHHSNYYYYGMDVWGQGTTVTVSRGGGGSGGGGSGGGGSMASYELTQPLSVSVALGQTARITCGGNNIGSKNVHWYQQKPGQAPVLVIYRDSNRPSGIPERFRGSNSGNRARLTISRAQAGDEADYYCQVWDSSHVFGTGTKVTVLGQPKANPTVTLFPPSSEELQANKATLVCLISDFYPGAVTVAWKADGSPVKAGVETTKPSKQSNNKYAASSYLSLTPEQWKSHRSYSCQVTHEGSTVEKTVAPTECSARQTRFWVLVVVGGVLACYSLLVTVAFIIFWVRL[about 120 residues left out here]RSQCMWPRETQLLLEVPPSTEDARSCQFPEEERGERSAEEKGRLGDLWV
With B2 the “IFNγ production, co-culture with SK-MEL-124” value [1] was 0.56 ratio to WT CAR-T (1.00) and the “cytotoxic activity, effector:target 3:1, SK-MEL-124 target cells” value [1] was 1.84 ratio to WT CAR-T (1.00).

B3: PRAME-zG-Km3 (other)
chain: QVQLQVQLVQSGAEVKKPGSSVKVSCKASGGTFSSYAISWVRQAPGQGLEWMGGIIPIFGTANYAQKFQGRVTITADESTGTAYMELSSLRSEDTAVYYCARHHSNYYYYGMDVWGQGTTVTVSRGGGGSGGGGSGGGGSMASYELTQPLSVSVALGQTARITCGGNNIGSKNVHWYQQKPGQAPVLVIYRDSNRPSGIPERFSGKNSGNKAKLTISRAQAGDEADYYCQVWDSSHVFGTGTKVTVLGQPKANPTVTLFPPSSEELQANKATLVCLISDFYPGAVTVAWKADGSPVKAGVETTKPSKQSNNKYAASSYLSLTPEQWKSHRSYSCQVTHEGSTVEKTVAPTECSARQTRFWVLVVVGGVLACYSLLVTVAFIIFWVRL[about 120 residues left out here]RSQCMWPRETQLLLEVPPSTEDARSCQFPEEERGERSAEEKGRLGDLWV
B3 was tested, and the “IFNγ production, co-culture with SK-MEL-124” value [2] was 0.87 ratio to WT CAR-T (1.00), the “cytotoxic activity, effector:target 1:1, SK-MEL-124 target cells” value [2] was 1.71 ratio to WT CAR-T (1.00) and the “cytotoxic activity, effector:target 3:1, SK-MEL-124 target cells” value [2] was 1.16 ratio to WT CAR-T (1.00).

B4: MAGE-A4-zG-Km6 (other)
chain: QVQLQVQLVQSGAEVKKPGSSVKVSCKASGGTFSSYAISWVRQAPGQGLEWMGGIIPIFGTANYAQKFQGRVTITADKSTSTAYMELSSLRSEDTAVYYCARSPRRAYHDAFDIWGQGTMVTVSSGGGGSGGGGSGGGGSSYELTQPPSMSVAPGKTASITCGGDHIGSKSVHWYQQKPGQAPVLVVYDDSDRPSGIPERFKGSNKGNKATLTISGTQAMDEADYYCLAWDSSTAIFGGGTQLTVLVGQPKANPTVTLFPPSSEELQANKATLVCLISDFYPGAVTVAWKADGSPVKAGVETTKPSKQSNNKYAASSYLSLTPEQWKSHRSYSCQVTHEGSTVEKTVAPTECSARQTRFWVLVVVGGVLACYSLLVTVAFIIFWVRL[about 120 residues left out here]RSQCMWPRETQLLLEVPPSTEDARSCQFPEEERGERSAEEKGRLGDLWV
With B4 the “IFNγ production, co-culture with SK-MEL-37” value [3] was 0.93 ratio to WT CAR-T (1.00), the “cytotoxic activity, effector:target 1:1, SK-MEL-37 target cells” value [3] was 1.61 ratio to WT CAR-T (1.00) and the “cytotoxic activity, effector:target 3:1, SK-MEL-37 target cells” value [3] was 1.52 ratio to WT CAR-T (1.00).

B5: MAGE-A4-zG-m10 (other)
chain: QVQLQVQLVQSGAEVKKPGSSVKVSCKASGGTFSSYAISWVRQAPGQGLEWMGGIIPIFGTANYAQKFQGRVTITADKSTSTAYMELSSLRSEDTAVYYCARSPRRAYHDAFDIWGQGTMVTVSSGGGGSGGGGSGGGGSSYELTQPPSMSVAPGKTASITCGGDHIGSKSVHWYQQKPGQAPVLVVYDDSDRPSGIPERFSGSNRGNRARLTISGTQAMDEADYYCLAWDSSTAIFGGGTQLTVLVGQPKANPTVTLFPPSSEELQANKATLVCLISDFYPGAVTVAWKADGSPVKAGVETTKPSKQSNNKYAASSYLSLTPEQWKSHRSYSCQVTHEGSTVEKTVAPTECSARQTRFWVLVVVGGVLACYSLLVTVAFIIFWVRL[about 120 residues left out here]RSQCMWPRETQLLLEVPPSTEDARSCQFPEEERGERSAEEKGRLGDLWV
For B5, the “IFNγ production, co-culture with SK-MEL-37” value [3] was 0.32 ratio to WT CAR-T (1.00), the “cytotoxic activity, effector:target 1:1, SK-MEL-37 target cells” value [3] was 0.99 ratio to WT CAR-T (1.00) and the “cytotoxic activity, effector:target 3:1, SK-MEL-37 target cells” value [3] was 1.77 ratio to WT CAR-T (1.00).

B6: MAGE-A4-zG-Km8 (other)
chain: QVQLQVQLVQSGAEVKKPGSSVKVSCKASGGTFSSYAISWVRQAPGQGLEWMGGIIPIFGTANYAQKFQGRVTITADKSTSTAYMELSSLRSEDTAVYYCARSPRRAYHDAFDIWGQGTMVTVSSGGGGSGGGGSGGGGSSYELTQPPSMSVAPGKTASITCGGDHIGSKSVHWYQQKPGQAPVLVVYDDSDRPSGIPERFSGKNKGNKATLTISGTQAMDEADYYCLAWDSSTAIFGGGTQLTVLVGQPKANPTVTLFPPSSEELQANKATLVCLISDFYPGAVTVAWKADGSPVKAGVETTKPSKQSNNKYAASSYLSLTPEQWKSHRSYSCQVTHEGSTVEKTVAPTECSARQTRFWVLVVVGGVLACYSLLVTVAFIIFWVRL[about 120 residues left out here]RSQCMWPRETQLLLEVPPSTEDARSCQFPEEERGERSAEEKGRLGDLWV
B6 was tested, and the “IFNγ production, co-culture with SK-MEL-37” value [3] was 0.91 ratio to WT CAR-T (1.00), the “cytotoxic activity, effector:target 1:1, SK-MEL-37 target cells” value [3] was 1.36 ratio to WT CAR-T (1.00) and the “cytotoxic activity, effector:target 3:1, SK-MEL-37 target cells” value [3] was 1.47 ratio to WT CAR-T (1.00).

B7: MAGE-A4-zG-m9 (other)
chain: QVQLQVQLVQSGAEVKKPGSSVKVSCKASGGTFSSYAISWVRQAPGQGLEWMGGIIPIFGTANYAQKFQGRVTITADKSTSTAYMELSSLRSEDTAVYYCARSPRRAYHDAFDIWGQGTMVTVSSGGGGSGGGGSGGGGSSYELTQPPSMSVAPGKTASITCGGDHIGSKSVHWYQQKPGQAPVLVVYDDSDRPSGIPERFSGRNSGNRARLTISGTQAMDEADYYCLAWDSSTAIFGGGTQLTVLVGQPKANPTVTLFPPSSEELQANKATLVCLISDFYPGAVTVAWKADGSPVKAGVETTKPSKQSNNKYAASSYLSLTPEQWKSHRSYSCQVTHEGSTVEKTVAPTECSARQTRFWVLVVVGGVLACYSLLVTVAFIIFWVRL[about 120 residues left out here]RSQCMWPRETQLLLEVPPSTEDARSCQFPEEERGERSAEEKGRLGDLWV
For B7, the “IFNγ production, co-culture with SK-MEL-37” value [3] was 0.29 ratio to WT CAR-T (1.00), the “cytotoxic activity, effector:target 1:1, SK-MEL-37 target cells” value [3] was 1.23 ratio to WT CAR-T (1.00) and the “cytotoxic activity, effector:target 3:1, SK-MEL-37 target cells” value [3] was 1.61 ratio to WT CAR-T (1.00).

B8: MAGE-A4-zG-m7 (other)
chain: QVQLQVQLVQSGAEVKKPGSSVKVSCKASGGTFSSYAISWVRQAPGQGLEWMGGIIPIFGTANYAQKFQGRVTITADKSTSTAYMELSSLRSEDTAVYYCARSPRRAYHDAFDIWGQGTMVTVSSGGGGSGGGGSGGGGSSYELTQPPSMSVAPGKTASITCGGDHIGSKSVHWYQQKPGQAPVLVVYDDSDRPSGIPERFRGSNSGNRARLTISGTQAMDEADYYCLAWDSSTAIFGGGTQLTVLVGQPKANPTVTLFPPSSEELQANKATLVCLISDFYPGAVTVAWKADGSPVKAGVETTKPSKQSNNKYAASSYLSLTPEQWKSHRSYSCQVTHEGSTVEKTVAPTECSARQTRFWVLVVVGGVLACYSLLVTVAFIIFWVRL[about 120 residues left out here]RSQCMWPRETQLLLEVPPSTEDARSCQFPEEERGERSAEEKGRLGDLWV
With B8 the “IFNγ production, co-culture with SK-MEL-37” value [3] was 0.22 ratio to WT CAR-T (1.00), the “cytotoxic activity, effector:target 1:1, SK-MEL-37 target cells” value [3] was 0.99 ratio to WT CAR-T (1.00) and the “cytotoxic activity, effector:target 3:1, SK-MEL-37 target cells” value [3] was 1.77 ratio to WT CAR-T (1.00).

Like-named read-outs stand apart in the source and are kept apart here.
